The labels stand for the following.
B1: GAUGCAA (DNA:RNA)
RNA: GGGAGACCGGAAUUCAGAUUGUCCGAUGCAAUUAAAUCCCGUCGUAGCCACCA
DNA 1: CAATCTGAATTCCGGTCTCCC
DNA 2: TGGTGGCTACGACGGGATT
B2: GAGAAGA (DNA:RNA)
RNA: B1 RNA with U27G, G28A, C29A, A30G
DNA 1: CAATCTGAATTCCGGTCTCCC
DNA 2: TGGTGGCTACGACGGGATT
B3: CCACCUG (DNA:RNA)
RNA: B1 RNA with G25C, A26C, U27A, G28C, A30U, A31G
DNA 1: CAATCTGAATTCCGGTCTCCC
DNA 2: TGGTGGCTACGACGGGATT
B4: UUUACGC (DNA:RNA)
RNA: B1 RNA with G25U, A26U, G28A, A30G, A31C
DNA 1: CAATCTGAATTCCGGTCTCCC
DNA 2: TGGTGGCTACGACGGGATT
B5: AAUUCUG (DNA:RNA)
RNA: B1 RNA with G25A, G28U, A30U, A31G
DNA 1: CAATCTGAATTCCGGTCTCCC
DNA 2: TGGTGGCTACGACGGGATT
B6: UACCGUC (DNA:RNA)
RNA: B1 RNA with G25U, U27C, G28C, C29G, A30U, A31C
DNA 1: CAATCTGAATTCCGGTCTCCC
DNA 2: TGGTGGCTACGACGGGATT
B7: ACGAGGC (DNA:RNA)
RNA: GGGAGACCGGAAUUCAGAUUGUCCACGAGGCUUAAAUCCCGUCGUAGCCACCA
DNA 1: CAATCTGAATTCCGGTCTCCC
DNA 2: TGGTGGCTACGACGGGATT
B8: GUGCCAA (DNA:RNA)
RNA: B1 RNA with A26U, U27G, G28C
DNA 1: CAATCTGAATTCCGGTCTCCC
DNA 2: TGGTGGCTACGACGGGATT
B9: ACGUACA (DNA:RNA)
RNA: B7 RNA with A28U, G29A, G30C, C31A
DNA 1: CAATCTGAATTCCGGTCTCCC
DNA 2: TGGTGGCTACGACGGGATT
B10: ACGGAUG (DNA:RNA)
RNA: B7 RNA with A28G, G29A, G30U, C31G
DNA 1: CAATCTGAATTCCGGTCTCCC
DNA 2: TGGTGGCTACGACGGGATT
B11: UUUGAAA (DNA:RNA)
RNA: B1 RNA with G25U, A26U, C29A
DNA 1: CAATCTGAATTCCGGTCTCCC
DNA 2: TGGTGGCTACGACGGGATT
B12: GAGGAGU (DNA:RNA)
RNA: B1 RNA with U27G, C29A, A30G, A31U
DNA 1: CAATCTGAATTCCGGTCTCCC
DNA 2: TGGTGGCTACGACGGGATT
B13: UUGAUCC (DNA:RNA)
RNA: B7 RNA with A25U, C26U, G29U, G30C
DNA 1: CAATCTGAATTCCGGTCTCCC
DNA 2: TGGTGGCTACGACGGGATT
B14: CUAAUCC (DNA:RNA)
RNA: B7 RNA with A25C, C26U, G27A, G29U, G30C
DNA 1: CAATCTGAATTCCGGTCTCCC
DNA 2: TGGTGGCTACGACGGGATT
B15: CUUAGGC (DNA:RNA)
RNA: B7 RNA with A25C, C26U, G27U
DNA 1: CAATCTGAATTCCGGTCTCCC
DNA 2: TGGTGGCTACGACGGGATT
B16: AGCGGCA (DNA:RNA)
RNA: B7 RNA with C26G, G27C, A28G, G30C, C31A
DNA 1: CAATCTGAATTCCGGTCTCCC
DNA 2: TGGTGGCTACGACGGGATT
B17: ACAAGGC (DNA:RNA)
RNA: B7 RNA with G27A
DNA 1: CAATCTGAATTCCGGTCTCCC
DNA 2: TGGTGGCTACGACGGGATT
B18: CAUUAAU (DNA:RNA)
RNA: B1 RNA with G25C, G28U, C29A, A31U
DNA 1: CAATCTGAATTCCGGTCTCCC
DNA 2: TGGTGGCTACGACGGGATT
B19: CUAGCGC (DNA:RNA)
RNA: B7 RNA with A25C, C26U, G27A, A28G, G29C
DNA 1: CAATCTGAATTCCGGTCTCCC
DNA 2: TGGTGGCTACGACGGGATT
B20: CGCAUAU (DNA:RNA)
RNA: B7 RNA with A25C, C26G, G27C, G29U, G30A, C31U
DNA 1: CAATCTGAATTCCGGTCTCCC
DNA 2: TGGTGGCTACGACGGGATT
B21: GAUCGUA (DNA:RNA)
RNA: B1 RNA with G28C, C29G, A30U
DNA 1: CAATCTGAATTCCGGTCTCCC
DNA 2: TGGTGGCTACGACGGGATT
B22: GAAUCAA (DNA:RNA)
RNA: B1 RNA with U27A, G28U
DNA 1: CAATCTGAATTCCGGTCTCCC
DNA 2: TGGTGGCTACGACGGGATT
B23: CCUUUAG (DNA:RNA)
RNA: B1 RNA with G25C, A26C, G28U, C29U, A31G
DNA 1: CAATCTGAATTCCGGTCTCCC
DNA 2: TGGTGGCTACGACGGGATT
B24: UGUUCAC (DNA:RNA)
RNA: B1 RNA with G25U, A26G, G28U, A31C
DNA 1: CAATCTGAATTCCGGTCTCCC
DNA 2: TGGTGGCTACGACGGGATT
B25: ACCGACC (DNA:RNA)
RNA: B7 RNA with G27C, A28G, G29A, G30C
DNA 1: CAATCTGAATTCCGGTCTCCC
DNA 2: TGGTGGCTACGACGGGATT
B26: UACACUG (DNA:RNA)
RNA: B1 RNA with G25U, U27C, G28A, A30U, A31G
DNA 1: CAATCTGAATTCCGGTCTCCC
DNA 2: TGGTGGCTACGACGGGATT
B27: UAAUGCC (DNA:RNA)
RNA: B7 RNA with A25U, C26A, G27A, A28U, G30C
DNA 1: CAATCTGAATTCCGGTCTCCC
DNA 2: TGGTGGCTACGACGGGATT
B28: CGCUGCA (DNA:RNA)
RNA: B7 RNA with A25C, C26G, G27C, A28U, G30C, C31A
DNA 1: CAATCTGAATTCCGGTCTCCC
DNA 2: TGGTGGCTACGACGGGATT
B29: GUGCGAA (DNA:RNA)
RNA: B1 RNA with A26U, U27G, G28C, C29G
DNA 1: CAATCTGAATTCCGGTCTCCC
DNA 2: TGGTGGCTACGACGGGATT
B30: GAUGGUG (DNA:RNA)
RNA: B1 RNA with C29G, A30U, A31G
DNA 1: CAATCTGAATTCCGGTCTCCC
DNA 2: TGGTGGCTACGACGGGATT
B31: GACGUGG (DNA:RNA)
RNA: B1 RNA with U27C, C29U, A30G, A31G
DNA 1: CAATCTGAATTCCGGTCTCCC
DNA 2: TGGTGGCTACGACGGGATT

Numbering of substitutions follows the chain as printed; changes in the protein carry UniProt numbers. Some of the results follow.

The assay deals with T1, RBFOX1 RRM (Homo sapiens, UniProt Q9NWB1 109-208).
T1 sequence: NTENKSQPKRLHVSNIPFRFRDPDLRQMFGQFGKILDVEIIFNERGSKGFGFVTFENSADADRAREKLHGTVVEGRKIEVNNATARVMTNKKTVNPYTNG
As to the kind of experiment: EMSA; HiTS-Eq, 1 nM pool, 10 min; buffer printed only for the single-RNA assays: 10 mM Tris pH 7.5, 150 mM NaCl, 3.4 mM EDTA, 0.001% NP-40, 30 C. The settings on record: tags: His6 N-terminal (pET28a); label: 5' 32P. Put shortly: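 These values rest on relative association constants, computed from read-count changes of each RNA species versus the control reaction and normalised to the cognate motif. Reads came from free RNA recovered by 8% native PAGE after purified RbFox RRM (wild type or mutant) at increasing concentrations was equilibrated for 10 min in 50 µL with 1 nM of a 5′-radiolabelled pool with 7 randomized nucleotides and DNA-annealed flanks.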
Background: A gel shift assay detects complexes by their altered migration in electrophoresis.
Turning to B1, the binding signal was 0.0183 KA relative to UGCAUGU. Next, B2: 0.0152 KA relative to UGCAUGU; B3: 0.00285 KA relative to UGCAUGU; B4: 0.0139 KA relative to UGCAUGU. With B5 the figure was 0.0115 KA relative to UGCAUGU. In the case of B6, the binding signal was 0.0072 KA relative to UGCAUGU. With B7 the figure was 0.0107 KA relative to UGCAUGU. With B8 the figure was 0.00893 KA relative to UGCAUGU. Take B9: the binding signal is 0.00345 KA relative to UGCAUGU.

Consider B10, for which the binding signal was 0.011 KA relative to UGCAUGU. With B11 the figure was 0.0166 KA relative to UGCAUGU; with B12, 0.0129 KA relative to UGCAUGU.

For the molecule B13, the binding signal was 0.0141 KA relative to UGCAUGU. With B14 the figure was 0.0018 KA relative to UGCAUGU; with B15, 0.0123 KA relative to UGCAUGU. With B16 the figure was 0.0196 KA relative to UGCAUGU; with B17, 0.00386 KA relative to UGCAUGU.

With B18, the binding signal is 0.00156 KA relative to UGCAUGU. B19: the binding signal is 0.011 KA relative to UGCAUGU. With B20 the figure was 0.00741 KA relative to UGCAUGU; with B21, 0.0149 KA relative to UGCAUGU; with B22, 0.00683 KA relative to UGCAUGU. B23: the binding signal was 0.0111 KA relative to UGCAUGU.

As to B24, the binding signal was 0.0103 KA relative to UGCAUGU. Next, B25: 0.00253 KA relative to UGCAUGU.

Turning to B26, the binding signal is 0.0103 KA relative to UGCAUGU. In the case of B27, the binding signal was 0.0126 KA relative to UGCAUGU. Regarding B28, the binding signal is 0.0198 KA relative to UGCAUGU.

In the case of B29, the binding signal was 0.0116 KA relative to UGCAUGU. Next, B30: 0.0236 KA relative to UGCAUGU; B31: 0.0166 KA relative to UGCAUGU.
